# Source: PubChem BioAssay (Tox21)
# Where “and” joins values, the source holds several entries; their conditions need not be identical. Identical values can stand only once. Inconclusive means that the source gave no clear call. Such entries were picked first, then a sample of the others. For part of these data: A potency beside an inconclusive call is a rough fit, not a confirmed value. More than one record can exist for a structure, and the calls need not agree. Calls of active or inactive are those of the source. The call rests on the fitted dose curve; in most records, active means well fitted curve in the direction sought with a large enough effect in the repeat runs; inconclusive means weak or mixed curves; inactive means no such curve, though single readings can be large; an effect the other way counts as inactive or inconclusive.
# Key:
# [1] = qHTS RealTime-Glo MT Cell Viability Assay in HEK293 cells - 32 hour (AID 1224868); further: nearly all actives have a fitted effect of over 50% in size; further: potency means the concentration at half of the fitted maximal effect; on activity change, negative = cytotoxic: top concentration of the series differs between compounds; on the % scale 0 is the no-effect control and ±100 the full control effect
# In short: (§1)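 Homogeneous bioluminescent viability format in HEK293 cells (600 cells/well). Following 5 h at 37 C/5% CO2, 23 nL compound was pintooled; the signal was measured repeatedly during 40 h incubation.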
# [2] = qHTS RealTime-Glo MT Cell Viability Assay in HEK293 cells - 16 hour (AID 1224872); further: nearly all actives have a fitted effect of over 50% in size; further: potency means the concentration at half of the fitted maximal effect
# In short: as §1
# [3] = qHTS RealTime-Glo MT Cell Viability Assay in HEK293 cells - 40 hour (AID 1224874); settings: RealTime-Glo luminescence; max response: stronger effect = lower value; further: nearly all actives have a fitted effect of over 50% in size; further: potency means the concentration at half of the fitted maximal effect; on max response: on the % scale 0 is the no-effect control and ±100 the full control effect
# In short: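 Luminescence, which tracks viable cell number through reduction of the prosubstrate to a NanoLuc substrate, was read over continuous 37 C culture. Cells (600/well) were premixed with reagent and rested 5 h before 23 nL of compound in DMSO was pinned.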
# [4] = A CellTox Green Cytotoxicity Assay to monitor cytotoxicity in HEK293 cells - 40 hour (AID 1224871); further: potency means the concentration at half of the fitted maximal effect; nearly all actives have a fitted effect of over 45% in size
# In short: (§2)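 Fluorescence from a DNA-binding dye excluded by viable cells was measured repeatedly in the same HEK293 wells (600 cells/well) during continuous compound exposure at 37 C. Each assay gives one read point: 0, 8, 16, 24, 32 or 40 h.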
# [5] = A CellTox Green Cytotoxicity Assay to monitor cytotoxicity in HepG2 cells - 24 hour (AID 1224878); further: potency means the concentration at half of the fitted maximal effect; nearly all actives have a fitted effect of over 45% in size
# In short: (§3)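 Real-time cytotoxicity: fluorescence of a cell-impermeant cyanine dye binding DNA of dead HepG2 cells, measured repeatedly (0–40 h) during compound exposure at 37 C. Cells seeded 600/well with reagent, dosed after 5 h.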
# [6] = A CellTox Green Cytotoxicity Assay to monitor cytotoxicity in HepG2 cells - 40 hour (AID 1224879); further: nearly all actives have a fitted effect of over 40% in size; further: potency means the concentration at half of the fitted maximal effect
# In short: as §3
# [7] = A CellTox Green Cytotoxicity Assay to monitor cytotoxicity in HEK293 cells - 24 hour (AID 1224875); further: potency means the concentration at half of the fitted maximal effect; nearly all actives have a fitted effect of over 45% in size
# In short: as §2
# [8] = A CellTox Green Cytotoxicity Assay to monitor cytotoxicity in HEK293 cells - 32 hour (AID 1224881); further: potency means the concentration at half of the fitted maximal effect; nearly all actives have a fitted effect of over 40% in size
# In short: as §2
# [9] = A CellTox Green Cytotoxicity Assay to monitor cytotoxicity in HEK293 cells - 0 hour (AID 1224869); further: on the % scale 0 is the no-effect control and ±100 the full control effect; nearly all actives have a fitted effect of over 50% in size
# In short: as §2
# [10] = qHTS RealTime-Glo MT Cell Viability Assay in HepG2 cells - 32 hour (AID 1224877); further: on the % scale 0 is the no-effect control and ±100 the full control effect; nearly all actives have a fitted effect of over 55% in size
# In short: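 Cell number in HepG2 cultures estimated from NanoLuc luminescence generated by metabolic reduction of a prosubstrate by living cells. The homogeneous, nonlytic format allowed repeated reads at 0, 8, 16, 24, 32 and 40 h of compound exposure.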
# Tags describe the fitted curve by direction and shape.
smiles,measurement,setting,value
CC(=O)c1ccc2ccc3ccccc3c2c1,Potency,[1],"inconclusive: 38.7 µM [cytotoxic, partial curve]"
same,Potency,[2],"inconclusive: 43.4 µM [cytotoxic, partial curve]"
same,Potency,[3],"inconclusive: 38.7 µM [cytotoxic, partial curve]"
CC(C)Cn1cnc2c(N)nc3ccccc3c21,Potency,[1],"inconclusive: 3.69 µM [cytotoxic, partial curve]"
same,Potency,[2],"inconclusive: 8.27 µM [cytotoxic, partial curve]"
same,Potency,[3],"inconclusive: 4.65 µM [cytotoxic, partial curve]"
O=C(O)CN(CCN(CC(=O)O)CC(=O)O)CCN(CC(=O)O)CC(=O)O,Potency,[1],"inconclusive: 0.0414 µM [cytotoxic, single point]"
same,Potency,[2],"inconclusive: 0.0369 µM [cytotoxic, partial curve]"
same,Potency,[3],"inconclusive: 0.0414 µM [cytotoxic, single point]"
CCCCCCCCCCCCCCC(=O)O,Potency,[1],inactive
same,Potency,[2],inactive
CCC(=O)c1ccc2c(c1)N(CCCN(C)C)c1ccccc1S2,Potency,[1],active: 16.9 µM
same,Potency,[4],"inconclusive: 26.8 µM [activator, partial curve, poor fit]"
same,Potency,[2],active: 10.7 µM
same,Potency,[3],active: 19 µM
same,Potency,[5],"inconclusive: 26.8 µM [activator, single point]"
same,Potency,[6],"inconclusive: 26.8 µM [activator, single point]"
Cc1cc(-c2ccc(N=Nc3cc(S(=O)(=O)O)c4ccccc4c3N)c(C)c2)ccc1N=Nc1cc(S(=O)(=O)O)c2ccccc2c1N,Potency,[1],active: 2.2 µM
same,Potency,[2],"inconclusive: 1.75 µM [cytotoxic, full curve]"
same,Potency,[7],"inconclusive: 62 µM [activator, single point]"
same,Potency,[8],"inconclusive: 55.2 µM [activator, single point]"
Cc1onc(-c2ccccc2)c1-c1ccc(S(N)(=O)=O)cc1,Potency,[1],"inconclusive: 21.3 µM [cytotoxic, partial curve]"
same,Potency,[2],"inconclusive: 19 µM [cytotoxic, partial curve]"
same,Potency,[3],"inconclusive: 21.3 µM [cytotoxic, partial curve]"
CC(C)Cc1ccc(C(C)C(=O)OCc2ccccn2)cc1 (centres undefined),Potency,[1],"inconclusive: 21.3 µM [cytotoxic, partial curve]"
same,Potency,[2],"inconclusive: 23.9 µM [cytotoxic, partial curve]"
CC(=O)OC[C@H]1O[C@@H](n2ncc(=O)[nH]c2=O)[C@H](OC(C)=O)[C@@H]1OC(C)=O,Potency,[1],inactive
same,Potency,[2],inactive
same,Potency,[3],"inconclusive: 1.9 µM [cytotoxic, full curve]"
CC1(C)C(C=C(Cl)Cl)C1C(=O)OCc1cccc(Oc2ccccc2)c1 (centres undefined),Potency,[1],inactive
same,Potency,[2],"inconclusive: 48.6 µM [cytotoxic, partial curve]"
c1ccc(CNc2ncnc3c2ncn3C2CCCCO2)cc1 (centres undefined),Potency,[1],"inconclusive: 21.9 µM [cytotoxic, partial curve]"
same,Potency,[2],"inconclusive: 21.9 µM [cytotoxic, partial curve]"
same,Potency,[3],"inconclusive: 34.7 µM [cytotoxic, partial curve]"
CCCCCCCCCCCCCCN(C)C,"activity change, negative = cytotoxic",[1],inactive: -30.2% [at 15.8 µM]
same,Potency,[2],"inconclusive: 13.2 µM [cytotoxic, single point]"
same,max response,[3],inactive: -29.2%
CC(C)NCC(O)c1ccc(O)c(O)c1 (centres undefined),Potency,[1],"active: 43.1 µM and inconclusive: 54.9 µM [cytotoxic, single point]"
same,Potency,[2],"active: 48.4 µM and inconclusive: 61.6 µM [cytotoxic, single point]"
same,Potency,[3],"active: 38.4 µM and inconclusive: 54.9 µM [cytotoxic, single point]"
NC(N)=NCCN1CCCCCCC1,cytotoxicity,[9],inactive: 4.87% [at 0.29 µM]
Cc1ccc(C(=O)O)o1,Potency,[1],inactive
same,Potency,[6],inactive
CNCc1ccccc1,Potency,[1],inactive
same,max response,[3],inactive: -3.32%
C=Cc1ccccc1C=C,Potency,[1],inactive
same,Potency,[6],"inconclusive: 21.9 µM [activator, single point]"
N[C@@H](COP(=O)(O)O)C(=O)O,cytotoxicity,[9],inactive: -3.53% [at 15.8 µM]
COc1cc(NC(C)CCCN)c2ncccc2c1 (centres undefined),Potency,[1],inactive
same,Potency,[6],inactive
CC(=O)OC1CCC(C(C)(C)C)CC1 (centres undefined),Potency,[1],inactive
same,Potency,[10],inactive
c1ccc2c(c1)ccc1ncccc12,Potency,[1],inactive
same,Potency,[6],"inconclusive: 61.7 µM [activator, single point]"
